{"source": "patent US9200045B2", "about": "“Small molecule-dependent inteins and uses thereof” (President and Fellows of Harvard College, priority 2011, dated 2015)", "system": "mCherry", "assay": "4-HT-dependent intein splicing in the mCherry context in HEK293 cells", "assay_type": "cell-based, human", "settings": "HEK293, 37° C., 1 μM 4-HT", "from_the_text": "p3XFlag-CMV-14 (Sigma) vectors with Gli1-intein (2-4 and 3-2), and Gli3T-intein (2-4 and 3-2) sequences were previously described (Yuen et al., 2006). p3XFlag-CMV-14 mCherry-intein (2-4 and 3-2) vectors were constructed by cloning the 2-4 and 3-2 intein sequences into the pRSET-B mCherry vector provided by Professor Roger Tsien (University of California at San Diego). The mCherry-intein 2-4 and mCherry-intein 3-2 sequences were then amplified using oligonucleotides introducing a 5′ EcoRI site and a 3′ BamHI site and ligated into EcoRI- and BamHI-digested p3XFlag-CMV-14 vector. 30R3-1 intein sequence and 37R3-2 intein sequence were amplified using the following oligonucleotides compatible with mCherry, Gli1, or Gli3 contexts.\nHEK293 cells were grown in 10 cm dishes or 6-well plates and transfected with relevant mammalian vectors using Effectene. After growth in the absence of 4-HT or in the presence of 1 μM 4-HT for 24 hours, cells were trypsinized and resuspended in 500 μL of phosphate buffered saline with 1% FBS and 75 U/mL DNase (New England Biolabs). Cell fluorescence analysis was carried out on a BD LSRII cell analyzer."}
{"molecule": "30R3-1: evolved 4-HT-dependent intein (RecA intein with estrogen receptor ligand-binding domain), clone from 30° C. evolution, Round 3 (protein) CLAEGTRIFDPVTGTTHRIEDVVDGRKPIHVVAAAKDGTLLARPVVSWFDQGTRDVIGLRIAGGATVWATPDHKVLTEYGWRAAGELRKGDRVAGPGGSGNSLALSLTADQMVSALLDAEPPIPYSEYDPTSPFSEASMMGLLTNLADRELVHMINWAKRVPGFVDLTLHDQAHLLECAWLEILMIGLVWRSMEHPGKLLFAPNLLLDRNQGKCVEGMVEIFDMLLATSSRFRMMNLQGEEFVCLKSIILLNSGVYTFLSSTLKSLEEKDHIHRALDKITDTLIHLMAKAGLTLQQQHQRLAQLLLILSHIRHMSNKGMEHLYSMKYKNVVPLYDLLLEMLDAHRLHAGGSGASRVQAFADALDDKFLHDMLAEGLRYSVIREVLPTRRARTFDLEVEELHTLVAEGVVVHNC", "values": [{"measurement": "spliced mCherry protein", "setting": "after 12 hours", "value": 33, "unit": "%"}, {"measurement": "spliced mCherry protein", "setting": "after 24 hours", "value": 54, "unit": "%"}]}
